Measured values as given in ChEMBL document CHEMBL1201862, “PubChem BioAssay data set” (2004).

System: NCI-H322M
Experiment: NCI tumour cell line growth inhibition, 48 h

| Structure (SMILES) | GI50 |
| --- | --- |
| CCC1c2[nH]c3ccccc3c2C[C@H]2C(=O)NC(Cc3c[nH]c4ccccc34)C(=O)N12 (stereo not given in full) | inactive: 33.6 µM |
| CN(C)S(=O)(=O)Nc1ccccn1 | inactive: > 100 µM |
| O=C(O)C(Sc1ccc(Cl)cc1)Sc1ccc(Cl)cc1 | inactive: 39.5 µM |
| c1cncc(CSc2ncnc3[nH]cnc23)c1 | inactive: > 100 µM |
| O=C1CC(c2cccc(F)c2)Nc2cc3c(cc21)OCO3 (stereo not given) | active: 0.0483 µM |
| CCOc1ccc(OP2(=O)NC(=O)C=C(C)N2)cc1 (stereo not given) | inactive: > 100 µM |
| Cc1cnc2sn(-c3ccc(Br)cc3)c(=O)c2c1 | inactive: 42 µM |
| Nc1ccccc1C(=O)NC(=O)Nc1ccc(Oc2ncc(Br)cn2)c(Cl)c1 | active: < 0.011 µM |
| C[n+]1cc2cc(O)c(O)cc2c2ccc3cc(O)c(O)cc3c21.c1ccncc1 | inactive: 2.57 µM |
| O=[N+]([O-])/C=C/c1cn(CCCCCn2cc(/C=C/[N+](=O)[O-])c3ccccc32)c2ccccc12 | inactive: 31.6 µM |
| Cc1ccccc1/C=C/C(=O)c1ccccc1 | inactive: 18.7 µM |
| CC(=O)OCCCCn1nncc1Cn1ccc(=O)n(Cc2cnnn2CCCCOC(C)=O)c1=O | inactive: > 100 µM |
| O=C(O)CCSC(CC1(c2ccc(Cl)cc2)NC(=O)CCS1)c1ccccc1 (stereo not given) | inactive: 16.6 µM |
| O=C(Nc1ccccc1)N1CCNC1=S | inactive: > 100 µM |
| O=C(C(=O)c1ccc(Cc2ccc(C(=O)C(=O)c3ccccc3)cc2)cc1)c1ccccc1 | inactive: > 100 µM |
| COc1c(C)c(OCC=C(C)C)cc(CO)c1CO | inactive: 48.2 µM |
| COc1ccc(C2c3cc4c(c(OC)c3CC3OCC(=O)C32)OCO4)cc1OC (stereo not given) | active: 0.0679 µM |
| CC(=O)Oc1c(N2CCCCC2)c(C(=O)c2ccccc2)c(O)c2ccn(N(C)C)c12 | inactive: 10.8 µM |
| O=c1c2cc3c(=O)n4c(cc(-c5ccccc5)c5cc(Cl)ccc54)nc3cc2nc2cc(-c3ccccc3)c3cc(Cl)ccc3n12 | inactive: > 100 µM |
| COC(=O)c1ccc(NCC2=CC(=O)C=CC2=O)cc1O | inactive: 20.5 µM |
| N#Cc1c(N)c2c(c(-c3ccccc3)c1-c1ccccc1)C(=O)N(NC(=O)c1ccccc1)C2=O | inactive: 98.2 µM |
| CC(C)(C)O/N=C/c1cc(NC(=S)c2ccsc2)ccc1Cl | inactive: 21 µM |
| CC(C)OP(=O)(OC(C)C)/C(=N/Nc1ccccc1[N+](=O)[O-])NCCN/C(=N\Nc1ccccc1[N+](=O)[O-])P(=O)(OC(C)C)OC(C)C | inactive: > 100 µM |

| Structure (SMILES) | GI50 |
| --- | --- |
| CN(C)CCCOCCn1c2c(c3ccccc31)CCCC2 | inactive: 32.9 µM |
| CC1CCC(C(C)C2C(O)CC3C4CC=C5CC(O)CCC5(C)C4CCC32C)NC1 (stereo not given) | inactive: 29.2 µM |
| Cc1cc(OCC(O)CO)ccc1Cl (stereo not given) | inactive: > 100 µM |
| CCO/C=N/C1=C(C#N)SC2=N/C(=C\c3ccccc3)C(=O)N21 | inactive: > 100 µM |
| CN(Cc1cnc2nc(N)nc(N)c2n1)c1ccc(C(=O)NC2CCCCC2)cc1 | inactive: 32.7 µM |
| CC(C)(C)c1cc(COc2c3sc(=S)sc3c(OCc3cc(C(C)(C)C)cc(C(C)(C)C)c3)c3sc(=S)sc23)cc(C(C)(C)C)c1 | inactive: > 100 µM |
| O=C(/C(=C\I)c1ccccc1)c1ccccc1 | inactive: 6.9 µM |
| COc1cc(C)c(/C=C2/N=C(c3ccccc3)OC2=O)c([N+](=O)[O-])c1OC | inactive: > 100 µM |
| COc1cc(CC2C(=O)OCC2[C@@H](OC(C)=O)c2ccc3c(c2)OCO3)c(Br)c(OC)c1OC (stereo not given in full) | inactive: > 100 µM |
| CC1(C)CC(=O)C2=C(C1)NC1=C(C2)C(=O)CC(C)(C)C1 | inactive: > 100 µM |
| CCOC(=O)CCCNC(=O)CCCCC(=O)N(C)C | inactive: > 100 µM |
| O=C(OCC1CCCN2CCCCC12)c1cccnc1 (stereo not given) | inactive: > 100 µM |
| O=C1C[C@H](CCC(=O)OCc2ccccc2)NC(=O)C[C@H](CCC(=O)OCc2ccccc2)NC(=O)C[C@H](CCC(=O)OCc2ccccc2)N1 | inactive: > 100 µM |
| CNNC1=NS(=O)(=O)c2cc(C#N)c(Cl)cc2S1 | inactive: > 10 µM |
| O=c1[nH]c(=O)n(C2CC(O)C(CO)O2)c2nc3ccc4ccccc4c3nc12 (stereo not given) | inactive: 46.9 µM |
| Nc1ccc2ncc(NCc3ccc(F)cc3)nc2c1 | inactive: 63.1 µM |
| CCCc1cc(=O)oc2c3c(c4c(c12)OC(C)(C)CC4)O[C@H](C)[C@@H](C)[C@H]3O | inactive: 15.8 µM |
| CC(=O)CC(=O)CCCC(=O)Nc1ccc(Cl)cc1Cl | inactive: > 100 µM |
| CC(C)(C)c1cc(OCc2nn3c(Cc4ccccc4)nnc3s2)c(Cl)cc1OCc1nn2c(Cc3ccccc3)nnc2s1 | inactive: > 100 µM |
| O=C1C(CN2CCCCC2)CCC1CN1CCCCC1 (stereo not given) | inactive: 31.8 µM |
| Cc1ccc2c(c1)C(=O)C1(C2)Cc2cccc(C)c2C1=O (stereo not given) | inactive: > 100 µM |
| C1=CC2CCC1CN2CCC1CNc2ccccc21 (stereo not given) | inactive: > 100 µM |

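Step 1: Grow cells in 96-well plates. Step 2: Expose to compound for 48 hours at 5 concentrations. Step 3: Interpolate endpoints linearly; if unreached, use highest concentration. The concentration for 50% growth inhibition is given as GI50.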 Activity calls are given as the source filed them. Rule as the data show it: active = GI50 up to about 1.1 µM and inactive = higher.
